From PMC7819943, “Rice protein-binding microarrays: a tool to detect cis-acting elements near promoter regions in rice”
The list shows a part of the results.

molecular target: T1, OsWOX13 (Oryza sativa, UniProt Q5QMM3 1-267); test: protein-binding microarray (RPBM); PBS, 2% BSA, 51.3 ng/ul salmon testes DNA, 50 uM zinc acetate, 200 nM TF, 25 C, 1 h; high values mean tight binding; settings: protein: recombinant; tags: N-terminal polyhistidine and DsRed monomer fusion (pET32a); label: CyDye5-dUTP incorporated in the synthesized complementary strand; 3' TTTTT single-stranded linker to array surface; dsDNA, one strand shown
T1 sequence: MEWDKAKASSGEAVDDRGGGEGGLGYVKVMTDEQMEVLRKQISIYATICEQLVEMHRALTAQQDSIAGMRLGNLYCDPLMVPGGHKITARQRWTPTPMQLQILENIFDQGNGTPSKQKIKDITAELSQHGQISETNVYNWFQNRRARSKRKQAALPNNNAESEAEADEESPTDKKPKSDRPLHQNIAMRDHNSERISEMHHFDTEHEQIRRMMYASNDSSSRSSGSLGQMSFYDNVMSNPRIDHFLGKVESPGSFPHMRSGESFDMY
Procedure, shortened: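 Transcription factors were made in E. coli BL21-CodonPlus as N-terminal fusions to a polyhistidine tag and DsRed, then purified on Ni–NTA. After primer extension with Cy5-dUTP and blocking with 2% BSA, a custom Agilent array was exposed for 1 h at 25 °C to 200 nM protein in PBS, 2% BSA, salmon testes DNA and 50 µM zinc acetate. Washed arrays were scanned on an Axon 4000B, and the binding signal is per-feature fluorescence intensity in arbitrary units.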

Question: With “TTTGTATCTATCTACCAACATCAATCAATACATGCTAACCCGGAGTCACCTAGTGCAG” as the sequence, how does the binding signal read?
Answer: 4870 fluorescence intensity (a.u.)

Question: “TCTAAACTGATAATTGCAAATTGTAATTGATAGCATTGAGCGGAGTCACCTAGTGCAG” was tested. Which binding signal did it give?
Answer: 63700 fluorescence intensity (a.u.)

Question: “CCTGAAACCACTTAATTTATCACAAACACCCCTCGTAGACCGGAGTCACCTAGTGCAG” was tested. Which binding signal did it give?
Answer: 5770 fluorescence intensity (a.u.)

Question: With “CACACCATTCCCAATCAAAGACGAGATAGCTCAAGAAGCACGGAGTCACCTAGTGCAG” as the sequence, how does the binding signal read?
Answer: 6540 fluorescence intensity (a.u.)

Question: How did the binding signal turn out when “TATAATTAATTGAGTATTTCTAAAATTGGATAAGACATATCGGAGTCACCTAGTGCAG” was run?
Answer: 28900 fluorescence intensity (a.u.)

Question: Which binding signal does the source give for “GGTGATATCATTAATTGCCAAGAATTCCATACATTCTTCCCGGAGTCACCTAGTGCAG” here?
Answer: 27000 fluorescence intensity (a.u.)

Question: For “CATAATGGTAATATTAACGTGGTAGATATCTTACACTAAACGGAGTCACCTAGTGCAG”, which binding signal is on record?
Answer: 6620 fluorescence intensity (a.u.)

Question: How did the binding signal turn out when “AACCTTGAATATTTAATTTAGACTTCACACGAATTGCAGACGGAGTCACCTAGTGCAG” was run?
Answer: 3310 fluorescence intensity (a.u.)

Question: How did the binding signal turn out when “CCTCGAAAGTGATTGGAATCTAATCCGTAACCCTAAACCACGGAGTCACCTAGTGCAG” was run?
Answer: 33800 fluorescence intensity (a.u.)

Question: With “ACGCCATACTTAACGCTGATTGCACTTATTAATTCTGTAGCGGAGTCACCTAGTGCAG” as the sequence, how does the binding signal read?
Answer: 11700 fluorescence intensity (a.u.)

Question: With “TTTGATAAACTAGTACATCCTTTTGTTTCACCATTTCGGCCGGAGTCACCTAGTGCAG” as the sequence, how does the binding signal read?
Answer: 4270 fluorescence intensity (a.u.)

Question: “TTGGGATTGAGAAATGAATGAAGGGTTAGGATTAAATGGACGGAGTCACCTAGTGCAG” was tested. Which binding signal did it give?
Answer: 26700 fluorescence intensity (a.u.)

Question: How did the binding signal turn out when “TTTACAAGTGGATTGGATAATTGTTGCTGCAGAACATGACCGGAGTCACCTAGTGCAG” was run?
Answer: 8040 fluorescence intensity (a.u.)

Question: Which binding signal does the source give for “TTCTAATATATATTGACGTAATCATTTTACGGGTTCGTGACGGAGTCACCTAGTGCAG” here?
Answer: 10500 fluorescence intensity (a.u.)

Question: Which binding signal does the source give for “TATGCTAGGAGCACTTAATTAATTGCTGTTCCTCTCTAGGCGGAGTCACCTAGTGCAG” here?
Answer: 4620 fluorescence intensity (a.u.)

Question: “ATTTAATTTAATTCAGGAATTTTGTTGAATAATGGATGCTCGGAGTCACCTAGTGCAG” was tested. Which binding signal did it give?
Answer: 37700 fluorescence intensity (a.u.)

Question: How did the binding signal turn out when “CGATCTGATGGACAGTCTCGATTGGTTCTGACGTAGATAACGGAGTCACCTAGTGCAG” was run?
Answer: 23600 fluorescence intensity (a.u.)

Question: For “CCATCCCCATCCATCCATCAATCTGCTCGCGCGGATCCGGCGGAGTCACCTAGTGCAG”, which binding signal is on record?
Answer: 3460 fluorescence intensity (a.u.)

Question: “CAAATTAAAGGATAATCAGCTTTACTCTAGTGGATGCATGCGGAGTCACCTAGTGCAG” was tested. Which binding signal did it give?
Answer: 8500 fluorescence intensity (a.u.)

Question: How did the binding signal turn out when “GAGATTAATATATAATAGCAAGACATACCTCCATCTAACACGGAGTCACCTAGTGCAG” was run?
Answer: 4490 fluorescence intensity (a.u.)

Question: How did the binding signal turn out when “CGTCTATATAATTAATAACTTATTCTATACTAATTAATCTCGGAGTCACCTAGTGCAG” was run?
Answer: 7040 fluorescence intensity (a.u.)

Question: Which binding signal does the source give for “TTCCTAATTTATTTAGAATTCTCACCAGGTCATAAGAAAGCGGAGTCACCTAGTGCAG” here?
Answer: 12100 fluorescence intensity (a.u.)

Question: Which binding signal does the source give for “TCTTAATTTAATTATCTATGTTATGTATAAAATTAGATGCCGGAGTCACCTAGTGCAG” here?
Answer: 44300 fluorescence intensity (a.u.)

Question: With “CCCCATTATTCTCAATCAAATCAGTGCATGATCAGTAGGGCGGAGTCACCTAGTGCAG” as the sequence, how does the binding signal read?
Answer: 29800 fluorescence intensity (a.u.)

Question: “GCGACAGGACGAGGTAATCAAGAAACGGGATTAAGATTAGCGGAGTCACCTAGTGCAG” was tested. Which binding signal did it give?
Answer: 4460 fluorescence intensity (a.u.)

Question: “GACACAAATTGAAATTATCATGAAAGACTTGAGTGAAGCACGGAGTCACCTAGTGCAG” was tested. Which binding signal did it give?
Answer: 44600 fluorescence intensity (a.u.)

Question: Which binding signal does the source give for “TTCAATTAATTATACAAAAGGACATTTCAACTGTTAAGTGCGGAGTCACCTAGTGCAG” here?
Answer: 20200 fluorescence intensity (a.u.)

Question: Which binding signal does the source give for “AGGAAGGCGCTGCAGAGGCCTGGGTTACCGGCGAATGACGCGGAGTCACCTAGTGCAG” here?
Answer: 9400 fluorescence intensity (a.u.)

Question: How did the binding signal turn out when “AATCACTCAATTATGGGGCAAAAGAGCACAATTTTCTTCTCGGAGTCACCTAGTGCAG” was run?
Answer: 4190 fluorescence intensity (a.u.)

Question: Which binding signal does the source give for “TGGATGATTAGGATGGAGAGAATGCCACCCCTGCCATTACCGGAGTCACCTAGTGCAG” here?
Answer: 19600 fluorescence intensity (a.u.)

Question: How did the binding signal turn out when “ATCAGCCAAAATTTAAATTTACAACCTTAAATTTGGAGTTCGGAGTCACCTAGTGCAG” was run?
Answer: 7880 fluorescence intensity (a.u.)

Question: With “GTGCTTTAATCAGTAATTTTGCAATTGCTTTTGAATTTCACGGAGTCACCTAGTGCAG” as the sequence, how does the binding signal read?
Answer: 5640 fluorescence intensity (a.u.)

Question: “GCATAAATTGAACCCATTTGAATCGTAGATGCAAAAGGATCGGAGTCACCTAGTGCAG” was tested. Which binding signal did it give?
Answer: 19400 fluorescence intensity (a.u.)

Question: With “GATCGCCACAAATTGACATGTATATGGTGACACGAATCGACGGAGTCACCTAGTGCAG” as the sequence, how does the binding signal read?
Answer: 13000 fluorescence intensity (a.u.)

Question: “CAGAATGGAGATTGTCAGATATCACCATCTGTAAGCTGTTCGGAGTCACCTAGTGCAG” was tested. Which binding signal did it give?
Answer: 3510 fluorescence intensity (a.u.)

Question: How did the binding signal turn out when “TTTATATTATTTGTCAATCTTATTGTCAACTTATTAATCACGGAGTCACCTAGTGCAG” was run?
Answer: 5140 fluorescence intensity (a.u.)

Question: Which binding signal does the source give for “GTAAATCCGTGATTAATTCTATCTAATCAAAACCGTCCTTCGGAGTCACCTAGTGCAG” here?
Answer: 22300 fluorescence intensity (a.u.)

Question: How did the binding signal turn out when “GTTAAATCATCTTATTGTAAATTCATCGATCGAAGTTGTGCGGAGTCACCTAGTGCAG” was run?
Answer: 8390 fluorescence intensity (a.u.)

Question: With “CTACAGCACCATGATTTATTATTTATTATATTGGTGCAATCGGAGTCACCTAGTGCAG” as the sequence, how does the binding signal read?
Answer: 4860 fluorescence intensity (a.u.)

Question: For “AGTCAATAATTATGAAAATTGATGAGTAACACTGCTACTCCGGAGTCACCTAGTGCAG”, which binding signal is on record?
Answer: 41000 fluorescence intensity (a.u.)

Question: Which binding signal does the source give for “TCCCAGATTGGCGCACCCCGAACATTCTCGAAACACCTTCCGGAGTCACCTAGTGCAG” here?
Answer: 8530 fluorescence intensity (a.u.)

Question: How did the binding signal turn out when “ATAGGATTGATCTCATCTCCCCAGGGCGACGTGGGGATCGCGGAGTCACCTAGTGCAG” was run?
Answer: 9880 fluorescence intensity (a.u.)
